Measured values as given in the supplement of paper PMC4604168 (melanoma cell lines).
Some of the results follow. Single values are uncertain, as repeats are few or missing.

How the values were obtained:
Assay in all cases: cell count relative to DMSO control; melanoma cells; higher = more viable cells
Details in all cases: library dose: low library concentration; 72 h
MZ2-MEL = tested on: MZ2-MEL
MeWo = tested on: MeWo
RPMI7951 = tested on: RPMI7951
RVH-421 = tested on: RVH-421
SkMel28 = tested on: SkMel28
SkMel2 = tested on: SkMel2
SkMel30 = tested on: SkMel30
SkMel5 = tested on: SkMel5
UACC257 = tested on: UACC257
UACC62 = tested on: UACC62
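Note: cell number obtained by counting DAPI-stained nuclei in high-throughput microscope images with image analysis software, screen run in 1,536-well plates.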

| SMILES | cell count (MZ2-MEL) [%] | cell count (MeWo) [%] | cell count (RPMI7951) [%] | cell count (RVH-421) [%] | cell count (SkMel28) [%] | cell count (SkMel2) [%] | cell count (SkMel30) [%] | cell count (SkMel5) [%] | cell count (UACC257) [%] | cell count (UACC62) [%] |
| --- | --- | --- | --- | --- | --- | --- | --- | --- | --- | --- |
| C=C(c1ccc(C(=O)O)cc1)c1cc2c(cc1C)C(C)(C)CCC2(C)C [Bexarotene] + COc1cc2c(Oc3ccc4[nH]c(C)cc4c3F)ncnc2cc1OCCCN1CCCC1 [cediranib] (first compound 2 µM, partner dose 0.4 µM) | 104 | 99 | 85.6 | 115 | 77.4 | 95.6 | 152 | 83.1 | 94.5 | 104 |
| NC1(c2ccc(-c3nc4ccn5c(=O)[nH]nc5c4cc3-c3ccccc3)cc2)CCC1 + O=C(Nc1cccc(Cl)c1)Nc1ncc(CCNc2ncnc3ccsc23)s1 [SNS314] (first compound 0.4 µM, partner dose 0.0008 µM) | 95.1 | 93.5 | 83 | 80.5 | 68.4 | 80 | 98.9 | 92.7 | 84.4 | 67.8 |
| CS(=O)(=O)c1ccc(C(=O)Nc2ccc(Cl)c(-c3ccccn3)c2)c(Cl)c1 [vismodegib] + O=C(Nc1cccc(Cl)c1)Nc1ncc(CCNc2ncnc3ccsc23)s1 [SNS314] (first compound 1 µM, partner dose 0.0008 µM) | 105 | 95.3 | 124 | 5.11 | 107 | 108 | 92.3 | 101 | 93.3 | 102 |
| NC1(c2ccc(-c3nc4ccn5c(=O)[nH]nc5c4cc3-c3ccccc3)cc2)CCC1 + CCCCCCCCCCCC1=C(O)C(=O)C=C(O)C1=O [Embelin] (first compound 0.4 µM, partner dose 1.2 µM) | 96.9 | 92.2 | 104 | 91.8 | 84 | 90.9 | 90.5 | 91.1 | 81.1 | 89.7 |
| CN(c1ncccc1CNc1nc(Nc2ccc3c(c2)CC(=O)N3)ncc1C(F)(F)F)S(C)(=O)=O + CCc1ccc(CCOc2ccc(CC3SC(=O)NC3=O)cc2)nc1 [pioglitazone] (first compound 0.08 µM, partner dose 2 µM) | 94.4 | 88.9 | 83.2 | 88.8 | 83 | 89.7 | 101 | 70.2 | 102 | 72.5 |
| CCCS(=O)(=O)Nc1ccc(F)c(C(=O)c2c[nH]c3ncc(Cl)cc23)c1F + CC(C)(C)c1cnc(CSc2cnc(NC(=O)C3CCNCC3)s2)o1 [SNS-032] (first compound 0.08 µM, partner dose 0.01 µM) | 79.9 | 88.4 | 89.4 | 81.8 | 76.1 | 88.9 | 83.3 | 95.9 | 98.2 | 57 |
| NC1(c2ccc(-c3nc4ccn5c(=O)[nH]nc5c4cc3-c3ccccc3)cc2)CCC1 + NC(=O)Nc1cc(-c2cccc(F)c2)sc1C(=O)N[C@H]1CCCNC1 [AZD7762] (first compound 0.4 µM, partner dose 0.02 µM) | 96 | 103 | 96.2 | 121 | 65.8 | 92.5 | 90 | 93.9 | 108 | 82.9 |
| C=C(c1ccc(C(=O)O)cc1)c1cc2c(cc1C)C(C)(C)CCC2(C)C [Bexarotene] + CN(NC(=O)CC(=O)NN(C)C(=S)c1ccccc1)C(=S)c1ccccc1 [STA4783] (first compound 2 µM, partner dose 0.006 µM) | 104 | 79.3 | 85.2 | 84.5 | 81.7 | 93 | 103 | 105 | 99.5 | 62.1 |
| NC1(c2ccc(-c3nc4ccn5c(=O)[nH]nc5c4cc3-c3ccccc3)cc2)CCC1 + O=C(O)C(=O)Nc1sc2c(c1C(=O)O)CCNC2 [TCS401] (first compound 0.4 µM, partner dose 1.66667 µM) | 94.8 | 94.3 | 101 | 91.4 | 79.7 | 78.5 | 106 | 86.5 | 87.9 | 71.7 |
| C=C(c1ccc(C(=O)O)cc1)c1cc2c(cc1C)C(C)(C)CCC2(C)C [Bexarotene] + c1cc(-c2cnn3cc(-c4ccc(OCCN5CCCCC5)cc4)cnc23)ccn1 [Dorsomorphin] (first compound 2 µM, partner dose 0.4 µM) | 99.1 | 95.7 | 88.2 | 120 | 84.4 | 101 | 93.6 | 81.7 | 86.1 | 86.7 |
| C=C(c1ccc(C(=O)O)cc1)c1cc2c(cc1C)C(C)(C)CCC2(C)C [Bexarotene] + Cn1cncc1[C@@](N)(c1ccc(Cl)cc1)c1ccc2c(c1)c(-c1cccc(Cl)c1)cc(=O)n2C [tipifarnib] (first compound 2 µM, partner dose 0.01 µM) | 105 | 93.2 | 86.3 | 94 | 86.2 | 72.1 | 123 | 101 | 113 | 83.4 |
| CCCS(=O)(=O)Nc1ccc(F)c(C(=O)c2c[nH]c3ncc(Cl)cc23)c1F + Oc1nc(-c2ccc(C(F)(F)F)cc2)nc2c1CSCC2 [XAV939] (first compound 0.08 µM, partner dose 2 µM) | 91.6 | 93.9 | 103 | 91 | 93.8 | 99.4 | 98.4 | 94.4 | 90.9 | 81.5 |
| CCCS(=O)(=O)Nc1ccc(F)c(C(=O)c2c[nH]c3ncc(Cl)cc23)c1F + CCN(CC)CCCCNc1ncc2cc(-c3cc(OC)cc(OC)c3)c(NC(=O)NC(C)(C)C)nc2n1 [PD173074] (first compound 0.08 µM, partner dose 0.1 µM) | 97.1 | 103 | 97.8 | 91 | 90 | 106 | 86.2 | 119 | 93.7 | 62.9 |
| CCCS(=O)(=O)Nc1ccc(F)c(C(=O)c2c[nH]c3ncc(Cl)cc23)c1F + OCCn1cc(-c2cnc3nnn(Cc4ccc5ncccc5c4)c3n2)cn1 [PF04217903] (first compound 0.08 µM, partner dose 1 µM) | 99 | 107 | 118 | 75.1 | 87.9 | 99.8 | 94.4 | 114 | 98.1 | 73.5 |
| CN(c1ncccc1CNc1nc(Nc2ccc3c(c2)CC(=O)N3)ncc1C(F)(F)F)S(C)(=O)=O + c1cc(-c2cnn3cc(-c4ccc(OCCN5CCCCC5)cc4)cnc23)ccn1 [Dorsomorphin] (first compound 0.08 µM, partner dose 0.4 µM) | 89.8 | 96 | 65.9 | 78.2 | 95.3 | 85.7 | 102 | 67 | 97.4 | 79.6 |
| CN(c1ncccc1CNc1nc(Nc2ccc3c(c2)CC(=O)N3)ncc1C(F)(F)F)S(C)(=O)=O + N#Cc1c(O)c2c(-c3ccc(-c4ccccc4O)cc3)csc2[nH]c1=O [A769662] (first compound 0.08 µM, partner dose 2 µM) | 99.8 | 111 | 89.6 | 105 | 94.1 | 89 | 107 | 83.9 | 89.8 | 115 |
| CN(c1ncccc1CNc1nc(Nc2ccc3c(c2)CC(=O)N3)ncc1C(F)(F)F)S(C)(=O)=O + O=C(Nc1cccc(Cl)c1)Nc1ncc(CCNc2ncnc3ccsc23)s1 [SNS314] (first compound 0.08 µM, partner dose 0.0008 µM) | 91.5 | 84.7 | 91.2 | 89.3 | 71.5 | 92 | 101 | 81.9 | 77.7 | 72.8 |
| CS(=O)(=O)c1ccc(C(=O)Nc2ccc(Cl)c(-c3ccccn3)c2)c(Cl)c1 [vismodegib] + C=CCn1c(=O)c2cnc(Nc3ccc(N4CCN(C)CC4)cc3)nc2n1-c1cccc(C(C)(C)O)n1 [MK1775] (first compound 1 µM, partner dose 0.02 µM) | 104 | 91.8 | 101 | 89.1 | 99.7 | 95.1 | 99.8 | 97.6 | 106 | 89.2 |
| CS(=O)(=O)c1ccc(C(=O)Nc2ccc(Cl)c(-c3ccccn3)c2)c(Cl)c1 [vismodegib] + Oc1cc(-c2nc(-c3ccccc3)[nH]c2-c2ccncc2)ccc1Cl [L779450] (first compound 1 µM, partner dose 0.2 µM) | 79.8 | 94.5 | 92.5 | 114 | 96.4 | 99.7 | 95.3 | 90.9 | 83.6 | 75.2 |
| CCCS(=O)(=O)Nc1ccc(F)c(C(=O)c2c[nH]c3ncc(Cl)cc23)c1F + Cc1cc([N+](=O)[O-])ccc1NS(=O)(=O)c1cc(Cl)ccc1Cl [FH535] (first compound 0.08 µM, partner dose 1 µM) | 85.6 | 101 | 106 | 69.8 | 55.2 | 91.1 | 90.5 | 92.7 | 104 | 50.2 |
| NC1(c2ccc(-c3nc4ccn5c(=O)[nH]nc5c4cc3-c3ccccc3)cc2)CCC1 + COc1cc(N2CCC(N3CCN(C)CC3)CC2)ccc1Nc1ncc(Cl)c(Nc2ccccc2S(=O)(=O)C(C)C)n1 [NVP-TAE684] (first compound 0.4 µM, partner dose 0.08 µM) | 93.4 | 94.9 | 120 | 79 | 71.7 | 90.3 | 98.6 | 106 | 95.7 | 68.3 |
| C=C(c1ccc(C(=O)O)cc1)c1cc2c(cc1C)C(C)(C)CCC2(C)C [Bexarotene] + NC(=O)Nc1cc(-c2cccc(F)c2)sc1C(=O)N[C@H]1CCCNC1 [AZD7762] (first compound 2 µM, partner dose 0.02 µM) | 102 | 107 | 93.4 | 137 | 90.9 | 104 | 112 | 93 | 132 | 89.3 |
| CN(c1ncccc1CNc1nc(Nc2ccc3c(c2)CC(=O)N3)ncc1C(F)(F)F)S(C)(=O)=O + Cn1cncc1[C@@](N)(c1ccc(Cl)cc1)c1ccc2c(c1)c(-c1cccc(Cl)c1)cc(=O)n2C [tipifarnib] (first compound 0.08 µM, partner dose 0.01 µM) | 95.6 | 105 | 73.9 | 84.3 | 90.2 | 78 | 108 | 91.3 | 48.9 | 58 |
